Results from PMC11633745.
No constants are given. Whether binding was seen depends on the method and setting. Binding seen in cells or lysates may run through a third protein. Some binding calls cover weakened binding; strength is not graded here.

Chains of the proteins cited; added tags and fusions are not shown. Residues count along the entry.
UniProt Q03164, residues 3694-3969: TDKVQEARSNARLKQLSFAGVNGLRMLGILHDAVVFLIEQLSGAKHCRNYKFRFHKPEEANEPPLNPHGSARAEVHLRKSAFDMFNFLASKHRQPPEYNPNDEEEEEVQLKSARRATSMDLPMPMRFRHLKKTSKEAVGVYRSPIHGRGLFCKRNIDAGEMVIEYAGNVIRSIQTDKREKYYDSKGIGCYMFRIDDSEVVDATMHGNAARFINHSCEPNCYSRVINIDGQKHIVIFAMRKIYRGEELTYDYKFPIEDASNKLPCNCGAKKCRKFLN
UniProt Q9BSJ2: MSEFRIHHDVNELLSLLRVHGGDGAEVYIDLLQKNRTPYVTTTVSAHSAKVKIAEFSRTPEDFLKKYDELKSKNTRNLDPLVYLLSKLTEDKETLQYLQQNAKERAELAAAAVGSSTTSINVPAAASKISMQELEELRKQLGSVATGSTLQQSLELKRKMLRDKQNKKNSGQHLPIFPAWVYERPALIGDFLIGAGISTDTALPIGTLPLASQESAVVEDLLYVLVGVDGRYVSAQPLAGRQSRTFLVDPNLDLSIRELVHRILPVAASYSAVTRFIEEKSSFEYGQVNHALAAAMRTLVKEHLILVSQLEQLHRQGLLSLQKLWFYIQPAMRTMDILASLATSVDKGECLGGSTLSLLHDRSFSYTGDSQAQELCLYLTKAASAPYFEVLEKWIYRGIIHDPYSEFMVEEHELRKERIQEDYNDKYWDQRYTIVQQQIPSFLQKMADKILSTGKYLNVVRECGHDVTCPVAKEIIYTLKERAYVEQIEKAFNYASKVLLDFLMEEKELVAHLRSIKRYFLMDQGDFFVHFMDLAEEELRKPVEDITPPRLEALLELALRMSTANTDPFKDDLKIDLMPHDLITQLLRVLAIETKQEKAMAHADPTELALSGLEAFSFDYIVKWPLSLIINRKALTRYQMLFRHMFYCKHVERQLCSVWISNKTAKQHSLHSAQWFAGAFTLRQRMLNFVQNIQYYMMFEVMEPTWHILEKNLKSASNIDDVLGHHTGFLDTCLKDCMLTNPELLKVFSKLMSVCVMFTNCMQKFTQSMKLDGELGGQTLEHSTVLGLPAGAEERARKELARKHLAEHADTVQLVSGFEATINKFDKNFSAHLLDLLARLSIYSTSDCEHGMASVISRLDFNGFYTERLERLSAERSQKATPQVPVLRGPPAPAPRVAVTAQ
UniProt Q8NHV4: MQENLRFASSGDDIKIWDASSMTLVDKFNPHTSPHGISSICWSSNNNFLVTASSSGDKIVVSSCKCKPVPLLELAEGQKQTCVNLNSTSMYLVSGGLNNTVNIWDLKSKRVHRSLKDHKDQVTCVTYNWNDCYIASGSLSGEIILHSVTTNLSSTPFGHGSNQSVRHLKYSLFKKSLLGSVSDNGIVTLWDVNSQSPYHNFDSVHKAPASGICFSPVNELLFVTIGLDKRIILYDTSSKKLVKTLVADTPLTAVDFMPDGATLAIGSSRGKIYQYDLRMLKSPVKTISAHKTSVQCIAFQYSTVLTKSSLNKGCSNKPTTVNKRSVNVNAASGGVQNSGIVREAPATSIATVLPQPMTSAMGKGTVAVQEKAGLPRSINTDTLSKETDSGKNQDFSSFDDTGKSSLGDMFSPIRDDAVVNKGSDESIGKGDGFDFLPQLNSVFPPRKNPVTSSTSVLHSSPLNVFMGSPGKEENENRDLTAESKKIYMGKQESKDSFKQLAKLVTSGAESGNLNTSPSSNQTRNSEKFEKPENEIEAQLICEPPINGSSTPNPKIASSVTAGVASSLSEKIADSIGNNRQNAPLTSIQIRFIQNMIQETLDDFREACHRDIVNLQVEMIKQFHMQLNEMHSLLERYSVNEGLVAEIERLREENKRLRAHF

Experiments:
[1] = biological target: GST-MLLCD3 (3694 to 3969 amino acids) (human) (UniProt Q03164); assay: pull-down; GST fusion protein bound to glutathione agarose beads incubated with HeLa whole-cell lysate for 3 hours, washed three times [15 mM tris (pH 7.4), 100 mM KCl, 0.02% NP-40, 1 mM DTT, 1 mM PMSF]; SDS-PAGE and Western blot; only the target purified
[2] = biological target: Cep72 (endogenous) (human (endogenous in HeLa)) (UniProt Q9P209); assay: co-IP; endogenous proteins immunoprecipitated from precleared HeLa cell lysate with anti-MLLC, anti-WDR5 or anti-Cep72 overnight at 4°C, Protein A Sepharose beads; anti-immunoglobulin G as mock IP; Western blot
GST-Cep72 (human) = GST-Cep72 (human) (UniProt Q9P209); assay: pull-down; GST fusion protein bound to glutathione agarose beads incubated with HeLa whole-cell lysate for 3 hours, washed three times [15 mM tris (pH 7.4), 100 mM KCl, 0.02% NP-40, 1 mM DTT, 1 mM PMSF]; SDS-PAGE and Western blot; only the target purified

| binding [1] | binding [2] | binding (GST-Cep72 (human)) | Substance |
| --- | --- | --- | --- |
| binds | – | – | Cep72 (endogenous) (from UniProt Q9P209 1-647) |
| binds | binds | binds | GCP2 (endogenous) (from UniProt Q9BSJ2 1-902) |
| no binding | – | no binding | NEDD1 (endogenous) (from UniProt Q8NHV4 1-660) |
